Columns and labels:
[1] = molecular target: T1, human PD-L1-HIS tagged recombinant protein (human, UniProt Q9NZQ7 in part); experiment: SPR, Protein A capture, PD-L1-HIS analyte
T1 construct: also called hPD-L1-HIS; PD-L1 HIS tagged protein

[2] = molecular target: PD-L1 on PD-L1 aAPC/CHOK1 cells (Promega J1250); experiment: cell-based or functional assay
[3] = molecular target: T2, recombinant His-tagged human IL-2Rβ (human, UniProt P14784 27-240, limits assumed); experiment: SPR, Protein A capture, IL-15Rβ-HIS analyte
T2 construct: also called IL-2Rβ-HIS; IL-15Rβ-HIS
T2 sequence (looked up): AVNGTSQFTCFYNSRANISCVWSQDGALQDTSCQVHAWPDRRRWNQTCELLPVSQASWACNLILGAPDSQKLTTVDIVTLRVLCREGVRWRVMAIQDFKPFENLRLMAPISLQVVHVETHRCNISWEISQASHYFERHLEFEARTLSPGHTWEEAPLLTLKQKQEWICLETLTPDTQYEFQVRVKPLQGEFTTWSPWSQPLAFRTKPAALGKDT
Experimental: Note, the IL-15 receptor shares the same Beta subunit with IL-2 receptor. Therefore, IL-15Rβ is also referred to as IL-2Rβ and CD122. The assay was run with Biacore T200 control software version 2.0. […] The flow cells were then regenerated with Glycine pH 2 for 60 seconds at flow rate of 30 μl/min. […] The specific binding response unit was derived from subtraction of binding to reference flow cell 1 from antibody captured flow cell 2.

[4] = molecular target: T1, human PD-L1-HIS tagged recombinant …; experiment: ELISA, coated PD-L1-HIS, anti-Human HRP
Experimental: The plate was incubated overnight at 4° C. followed by blocking with 80 μL of superblock per well for 1 hour. […] In between each step, the plate was washed 3 times with 1×PBST in a plate washer. […] The plate was read at OD450 nm Biotek plate reader and then plotted in Prism 8.1 software to calculate EC50.

- Kd [1]: 0.509 nM
- koff [1]: 0.00047 s⁻¹
- kon [1]: 923000 M⁻¹ s⁻¹
- NFAT reporter EC50 [2]: 2.3 nM
- Kd [3]: 63 nM
- koff [3]: 0.0298 s⁻¹
- kon [3]: 473000 M⁻¹ s⁻¹
- EC50 [4]: 0.11 nM
B1: anti-PD-L1 scFv/IL-15 fusion EP207/EP208 (bispecific antibody)
chain 1: QVQLVQSGAEVKKPGSSVKVSCKASGGTFSSYAISWVRQAPGQGLEWMGGIIPIFGTANYAQKFQGRVTITADESTSTAYMELSSLRSEDTAVYYCARDKWYGSAWRGDYWGQGTLVTVSSGGGGSGGGGSGGGGSQSVLTQPPSASGTPGQRVTISCSGSYSNIGSNFVNWYQQLPGTAPKLLIHFNNQRPSGVPDRFSGSRSGTSASLAISGLQSEDEADYFCSTWDDSLKGPIFGGGTKLTVLDKTHTCPPCPAPELLGGPSVFLFPPKPKDTLMISRTPEVTCVVVDVSHEDPEVKFNWYVDGVEVHNAKTKPREEQYNSTYRVVSVLTVLHQDWLNGKEYKCKVSNKALPAPIEKTISKAKGQPREPQVYTLPPCRDELTKNQVSLWCLVKGFYPSDIAVEWESNGQPENNYKTTPPVLDSDGSFFLYSALTVDKSRWQQGNVFSCSVMHEALHNHYTQKSLSLSPGKGGGGSGGGGSGGGGSGGGG[letters of about 120 residues omitted]
chain 2: QVQLVQSGAEVKKPGSSVKVSCKASGGTFSSYAISWVRQAPGQGLEWMGGIIPIFGTANYAQKFQGRVTITADESTSTAYMELSSLRSEDTAVYYCARDKWYGSAWRGDYWGQGTLVTVSSGGGGSGGGGSGGGGSQSVLTQPPSASGTPGQRVTISCSGSYSNIGSNFVNWYQQLPGTAPKLLIHFNNQRPSGVPDRFSGSRSGTSASLAISGLQSEDEADYFCSTWDDSLKGPIFGGGTKLTVL[letters of human IgG1 Fc with Y349C T366S L368A F405K Y407V (EU numbers) omitted]GGGGSGGGGSGGGGSGGGGSITCPPPMSVEHADIWVKSYSLYSRERYICNSGFKRKAGTSSLTECVLNKATNVAHWTTPSLKCIRDP
notes: also called anti-PD-L1-scFv-Fc/IL-15

Reference: patent publication US20250340646A1 (ELPIS BIOPHARMACEUTICALS, published 2025)
